PubChem BioAssay AID1508642 (National Center for Advancing Translational Sciences (NCATS), 2021)
Among all 43,000 compounds or so, about 200 (0.47%) were called active. Inconclusive means that the source gave no clear call. Such entries were picked first, then a sample of the others. The call rests on the fitted dose curve; in most records, active means well fitted cell-killing curve with a large enough effect; inconclusive means small, poorly fitted or top-dose-only effect, or effect the other way; inactive means flat fitted curve, though single readings scatter. A potency beside an inconclusive call is a rough fit, not a confirmed value.

assay: Cell viability qHTS assay in S16 Pmp22-F2sN cells; details: S16 Pmp22-F2sN Schwann cells (luciferase reporters placed in the Pmp22 gene) viability, CellTiter-Glo, 24 h; series mostly up to 57.5 µM; further: nearly all actives have a fitted effect of over 65% in size
Outline: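 Rat S16 Schwann reporter line, 24 h treatment with library compounds delivered at 23 nL per well. Cell viability by CellTiter-Glo luminescence.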
Potency means the concentration at half of the fitted maximal effect; tags describe the fitted curve by direction and shape.

SMILES	Potency
COCCCNC(=O)c1sc2nc(C)c(C(=O)Nc3ccc(C)cc3C)c(-c3ccc(Br)cc3)c2c1N	inconclusive: 39.8 µM [cytotoxic, single point]
CCOC(=O)c1cc(-c2ccc(OC)cc2)n(CCC(=O)Nc2cccc(C(C)=O)c2)c1C	inconclusive: 3.55 µM [rising, partial curve, poor fit]
COc1ccc(OC(=O)CSc2nnc(-c3ccc(F)cc3)o2)cc1	inactive
O=C(NCCCN1CCCCC1)c1ccc2c(c1)sc1nc(-c3ccc(F)cc3)cn12	inconclusive: 39.8 µM [cytotoxic, single point]
COc1ccc(N2CCN(C(=O)c3c4c(nc5ccccc35)C(=O)N(C3CCCCC3)C4)CC2)cc1	inactive
COc1ccc(-c2nc3ccccc3o2)cc1NC(=O)c1ccc(OCC(C)C)cc1	inactive
O=C(CN(c1cccc(C(F)(F)F)c1)S(=O)(=O)c1ccccc1)Nc1cccc(Cl)c1	inconclusive: 31.6 µM [cytotoxic, single point]
COc1ccccc1CNC(=O)C(=O)NCC(c1cccnc1)N1CCN(c2ccc(F)cc2)CC1 (stereo not drawn)	inconclusive: 31.6 µM [cytotoxic, single point]
COC(=O)c1c(SC)nc2ccccc2c1OCc1cc(C)ccc1C	inconclusive: 17.8 µM [rising, partial curve, poor fit]
COc1ccc(C)cc1NC(=O)Cc1ccc(NC(=O)N2CCCCc3ccccc32)cc1	inconclusive: 28.2 µM [rising, single point]
CN(c1ccc(Cl)cc1)S(=O)(=O)c1nnc(NC(=O)c2ccco2)s1	inactive
CCOC(=O)c1[nH]c(C)c(C(=O)NCCc2ccccc2)c1C	inactive
O=C(CCn1c(=O)c2ccccc2n(Cc2ccc(Cl)cc2)c1=O)NCc1ccc2c(c1)OCO2	inactive
CCCCN(C)CC(O)Cn1cc(/C=C/C(=O)c2ccc(OCC)cc2)c2ccccc21 (stereo not drawn)	inconclusive: 28.2 µM [cytotoxic, single point]
COc1ccccc1NC(=O)N1CCOc2ccccc21	inconclusive: 0.282 µM [cytotoxic, full curve, poor fit]
O=C(CC(=O)Nc1ccccc1F)Nc1ccc2nc3n(c(=O)c2c1)CCCCC3	inconclusive: 2.82 µM [rising, full curve, poor fit]
COc1ccccc1NC(=O)CSc1nc(-c2cccc(Cl)c2)nc2c1Cc1c(CO)cnc(C)c1O2	inactive
CCc1ccc(C(=O)c2cn(Cc3ccccc3)c3cc(OC)c(OC)cc3c2=O)cc1	inconclusive: 28.2 µM [cytotoxic, partial curve, poor fit]
